Data published in PubChem BioAssay AID1346428 (National Center for Advancing Translational Sciences (NCATS), 2018).
Values joined by “and” are separate entries in the source; they are usually repeats but may differ in a detail not shown here. Equal entries are not always repeated. About 1,200 (2.5%) of roughly 48,000 compounds were called active. Inconclusive results (about 2%) are left out.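 Rule for the calls: active = activation of at least 60% and not above a set upper limit (about 1 call in 100 departs from these limits); inconclusive = activation of 40% to 60%, or above that upper limit; inactive = activation under 40%.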 Some of the results follow.

Biological target: Probable G-protein coupled receptor 32 (Homo sapiens) (UniProt O75388)
Chain of UniProt O75388 (O75388 whole entry, looked up): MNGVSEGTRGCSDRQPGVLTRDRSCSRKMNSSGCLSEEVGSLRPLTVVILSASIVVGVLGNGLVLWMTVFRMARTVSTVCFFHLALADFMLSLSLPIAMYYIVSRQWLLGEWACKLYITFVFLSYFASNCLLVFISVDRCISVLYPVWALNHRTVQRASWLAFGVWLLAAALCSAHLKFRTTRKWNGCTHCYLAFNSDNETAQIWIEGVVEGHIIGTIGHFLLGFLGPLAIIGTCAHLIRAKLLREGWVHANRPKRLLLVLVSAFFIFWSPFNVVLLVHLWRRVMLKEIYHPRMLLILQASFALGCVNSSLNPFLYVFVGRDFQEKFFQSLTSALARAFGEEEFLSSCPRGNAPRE
Assay: qHTS for Agonists of Human Resolvin D1 Receptor DRV1; note: 0% is about no effect
Conditions: CHO-K1 GPR32 beta-arrestin PathHunter luminescence, 90 min; at 76.9 µM; hits give high values; zero percent set by DMSO-only wells
How it was run: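 Using DMSO wells as EC0, agonist-induced signal was taken as chemiluminescence from beta-Gal reconstituted upon beta-arrestin recruitment to GPR32 in CHO-K1 cells after 90 min compound treatment.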

Structure (SMILES) | activation
Nc1cc(=O)nc(SCC(=O)Nc2ccc(F)cc2)n1-c1cccc(Cl)c1 | inactive: -2.24%
Cc1cccc(N2CCN(C(=O)c3c(C)oc4ncnc(N5CCOCC5)c34)CC2)c1C | inactive: -11%
COc1ccc(C)cc1NC(=O)c1cc(S(=O)(=O)N2CCC(C)CC2)cn1C | inactive: -9.5%
O=C(OCC1(COC(=O)c2cccnc2)CCCC(COC(=O)c2cccnc2)(COC(=O)c2cccnc2)C1O)c1cccnc1 | inactive: 9.04%
COc1ccc(CN2C(=O)N(c3ccc(F)cc3)C(=O)C2CC(=O)Nc2cc(OC)cc(OC)c2)cc1 (stereo unspecified) | inactive: -9.92%
CCc1ccc(NC(=O)C(NS(=O)(=O)c2cccc3nsnc23)c2ccccc2)cc1 (stereo unspecified) | inactive: -34.5%
COc1ccc2c(CNCc3ccccc3OC)c(C(=O)O)n(Cc3ccc(F)cc3Cl)c2c1 | inactive: -5.63%
CCc1ccc(NC(=O)C2CCC(CNS(=O)(=O)c3ccc4c(c3)C(C)(C)C(=O)N4C)CC2)cc1 (stereo unspecified) | inactive: -6.07%
Cc1cccc(NC(=O)c2sc3nc(-c4ccccc4)cn3c2C)c1C | inactive: -9.18%
COc1cccc(NC(=O)c2sc3nc(C)c(C(=O)Nc4ccc(Cl)cc4)c(-c4ccc(Br)cc4)c3c2N)c1 | inactive: -15.2%
O=C(CSc1n[nH]c(-c2ccccc2)n1)N1CCN(c2ccccc2F)CC1 | inactive: -5.78%
Cn1c(=O)c2[nH]cnc2n(C)c1=O | inactive: -2.7% and inactive: 2.07%
Cc1ccc(NC(=O)Cn2c(=O)c3ccccc3n3nncc23)cc1 | inactive: -4.37%
CCSc1oc(-c2ccco2)nc1S(=O)(=O)c1ccc(Br)cc1 | inactive: -24.2%
CC(=O)c1ccc(Nc2nc3c(S(=O)(=O)c4ccccc4)nnn3c3ccc(Cl)cc23)cc1 | inactive: -11.4%
Cc1[nH]c(=O)c(C#N)cc1-c1ccncc1 | inactive: -6.24% and inactive: 0.285% and inactive: 2.09%
CCN1c2ccccc2-c2nc(SCC(=O)NCc3ccccc3)ncc2S1(=O)=O | inactive: -0.758%
COC(=O)CCNC(=O)NC(CCC(C)C)c1c(-n2cccc2)sc2c1CCN(C)C2 (stereo unspecified) | inactive: -21.6%
CCCc1cc(=O)[nH]c(SCC(=O)N2CCN(c3ccccc3OC)CC2)n1 | inactive: -17.2%
COc1cc(NC(=O)c2cc3c(s2)-c2ccccc2OC3)cc(OC)c1OC | inactive: -10.4%
CCCN(CCC)C(=O)Cn1c(=O)n(-c2ccc(Cl)cc2)c(=O)c2c3c(sc21)CCCCC3 | inactive: -4.19%

Structure (SMILES) | activation
Cc1ccc(-c2nn(-c3ccc(F)cc3)c3c2cnc2cc(F)c(F)cc23)cc1 | inactive: -3.66%
CCC(=O)N1CCc2cc(S(=O)(=O)NCCC(=O)Nc3cc(C)ccc3OC)ccc21 | inactive: -9.02%
Cc1ccc2nc(-c3ccc(O)cc3)c(Nc3ccc(Cl)cc3)n2c1 | inactive: -15.8%
COc1ccccc1NC(=O)Cn1c(=O)n(CCC(=O)NCC2CCCO2)c(=O)c2cc(OC)c(OC)cc21 (stereo unspecified) | inactive: 9.74%
COc1ccccc1-c1cc2nc(C)c(CCC(=O)O)c(C)n2n1 | inactive: -0.841%
Cc1nn(-c2ccc(N3CCCCC3)nn2)c(C)c1CCC(=O)NCc1ccc(OC(C)C)cc1 | inactive: -16.3%
CC(=O)c1cccc(Nc2nc(-c3cccc(C)c3)nc3ccccc23)c1 | inactive: -10.4%
Cc1ccccc1C(=O)Nc1ccc(OCc2cc(=O)n3ccccc3n2)cc1 | inactive: -15%
Cc1ccc(NC(=O)Cn2cc(S(=O)(=O)N3CCCC3)c(S(=O)(=O)N3CCCC3)c2)cc1F | inactive: -17.5%
Cc1ccc(CCNC(=O)c2c[nH]c3ccc(S(=O)(=O)Nc4ccc(C)cc4C)cc3c2=O)cc1 | inactive: -21.9%
Cc1ccc(C)c(S(=O)(=O)c2nnn3c2nc(Nc2ccc(C)c(C)c2)c2ccccc23)c1 | inactive: 17.6%
COc1cccc(NC(=O)CCN2CCN(c3ccccc3)CC2)c1 | inactive: -4.96%
COc1cccc(C(=O)NCC(c2ccc(N(C)C)cc2)N2CCc3ccccc32)c1 (stereo unspecified) | inactive: -31.5%
CCOC(=O)/C(C#N)=C/c1ccc(-c2ccc(Br)cc2)o1 | inactive: 0.366%
Cc1ccccc1-c1noc(-c2cccnc2N2CCN(c3ccccc3)CC2)n1 | inactive: -9.01%
CCCCS(=O)(=O)CC(O)CSc1nc(-c2ccc(C)cc2)cc(-c2ccccc2)c1C#N (stereo unspecified) | inactive: -23.4%
COc1cccc(C(=O)Nc2cccc(-c3cn4ccsc4n3)c2)c1OC | inactive: 0.663%
CCc1cccc(NS(=O)(=O)c2ccc(-n3cccn3)cc2)c1 | active: 85.9%
CCN(CC)C(=O)Cn1c(=O)n(-c2ccc(C)c(C)c2)c(=O)c2c3c(sc21)CCCCC3 | inactive: -2.01%
CCOC(=O)c1ccc(NC(=O)CCn2c(=O)c3cccn3c3cccnc32)cc1 | inactive: -12%
O=C(Nc1ccc(F)cc1F)c1cc(-c2ccc(Cl)cc2)on1 | inactive: 1.72%

Structure (SMILES) | activation
O=C(NCCCN1CCN(c2ccc(F)cc2)CC1)c1cnn(-c2ccc(F)cc2)c1-n1cccc1 | inactive: 35.8%
CCc1ccc(NC(=O)CSc2ccc(-c3ccccn3)nn2)cc1 | inactive: -3.44%
COc1ccc(NC(=O)c2ccc3c(SCC(=O)O)c4c(nc3c2)CCCC4)c(OC)c1 | inactive: -6.89%
O=C(CN1C(=O)COc2ccc(S(=O)(=O)N3CCOCC3)cc21)N1CCN(c2cccc(Cl)c2)CC1 | inactive: 22%
C#CCSc1nc(-c2ccccc2)cc(-c2ccccc2)c1C#N | inactive: -32%
Cc1ccc(-n2c3c(cc(-c4nc(-c5ccc(Cl)cc5)cs4)c2=O)C(=O)CC(C)(C)C3)cc1C | inactive: -4.3%
Cc1cc(Br)ccc1NC(=O)Cn1cc(S(=O)(=O)N2CCN(c3ccccc3F)CC2)c2ccccc2c1=O | inactive: -2.47%
COc1ccc(NC(=O)C2CCCN(c3ncnc4c3nc3n4CCCCC3)C2)c(OC)c1 (stereo unspecified) | inactive: -11.2%
COc1cc(NS(=O)(=O)c2cc3c(cc2C)N(C)CCO3)cc(OC)c1OC | inactive: -19.5%
Cc1ccnc2c1NC(=O)c1cccnc1N2C1CC1 | inactive: -3.52%
CN(C)CCC=C1c2ccccc2CCc2ccccc21 | inactive: 3.71% and inactive: -2.89%
Cc1ccc(C)c(N2CCN(C(=O)CCc3nnc4n(CC(C)C)c(=O)c5ccccc5n34)CC2)c1 | inactive: -4.62%
C#C[C@]1(O)CC[C@H]2[C@@H]3CCc4cc(OC5CCCC5)ccc4[C@H]3CC[C@@]21C | active: 68%
CC1=C(c2ccc(C(C)C)cc2)S(=O)(=O)NC1=NCCCN1CCN(c2ccccc2F)CC1 | inactive: 0.545%
Cc1ccc(CN2CCc3nc(Nc4ccc5c(c4)OCCO5)ncc3C2)cc1 | inactive: 29.3%
CCS(=O)(=O)N1CCc2cc(C(=O)Nc3ccc(C(=O)OC)cc3)ccc21 | inactive: 17.7%
CCOc1ccc(CNC(=O)c2cnc3sc(N4CCOCC4)nn3c2=O)cc1 | inactive: 0.665%
CCn1cc(C(=O)N2CCN(c3cccc(Cl)c3)CC2)c2cc(OC)c(OC)cc2c1=O | inactive: 14.6%
COc1ccc(-c2nc(CCNC(=O)c3cccs3)cs2)cc1 | inactive: 8.94%
CNC(=O)Cn1nc(-c2ccc(Cl)cc2)c2ccccc2c1=O | inactive: 1.1%
CCOC(=O)c1ccc(NC(=O)CC2Sc3ccc(C(F)(F)F)cc3NC2=O)cc1 (stereo unspecified) | inactive: 21.5%

Structure (SMILES) | activation
CCCCC(CC)CNC(=O)CN(C)S(=O)(=O)c1ccc2c(c1)c(=O)n(C)c(=O)n2C (stereo unspecified) | inactive: 10.4%
COc1ccc(NC(=O)CSC2=Nc3ccccc3C3=NC(CCC(=O)NCc4ccc(F)cc4)C(=O)N23)cc1Cl (stereo unspecified) | inactive: -14.7%
Cc1cc(NC(=O)CCNS(=O)(=O)c2ccc3c(c2)CCCC(=O)N3)ccc1Br | active: 100%
Cc1ccc(CN(C(=O)COc2ccc(Cl)cc2)c2ccccn2)o1 | inactive: 18.6%
COc1cccc(N2CCN(C(=O)C3CCN(S(=O)(=O)c4cccc5nonc45)CC3)CC2)c1 | inactive: -9.08%
Cc1nn(C)c2c1c(-c1ccccc1)cc(=O)n2Cc1ccccc1Cl | inactive: -20.5%
COc1ccc(CCNC(=O)Cn2nc(C)n3c(cc4cc(F)ccc43)c2=O)cc1OC | inactive: -5.91%
CCOc1ccccc1NC(=O)c1c(NCc2ccc(C)o2)sc2c1CCC(C)C2 (stereo unspecified) | inactive: 10.5%
CCCCN(C)C(=O)Cn1c(C2CC(=O)N(c3ccc(C)cc3)C2)nc2ccccc21 (stereo unspecified) | inactive: 3.73%
Cc1ccc(C)c(N2CCN(C(=O)c3cc4c(=O)n(Cc5ccco5)ccc4nc3C)CC2)c1 | inactive: -22.2%
COc1cccc(C(=O)Nc2cccc(NC(=O)c3ccc(Cl)cc3Cl)c2)c1 | inactive: -10.3%
COc1ccc(S(=O)(=O)Nc2ccc3oc4c(c3c2)C(=O)CC(C)(C)C4)cc1 | active: 64.3%
COC(=O)c1cc(S(=O)(=O)NCC2CCN(Cc3ccc(C)cc3)CC2)cn1C | inactive: 5.98%
CCOc1ccc(CNC(=O)CCCn2nc(C)c3sc4ccccc4c3c2=O)cc1 | inactive: -19.2%
CCC(C)Nc1sc(S(=O)(=O)CC)nc1S(=O)(=O)c1ccc(C)cc1 (stereo unspecified) | inactive: -17%
Cc1ccc(C)c(NC(=O)Cn2c(=O)nc(-c3ccccc3)c3ccccc32)c1 | inactive: -11.1%
CCCOc1ccc(-c2nn(-c3ccccc3)cc2C2NC(=O)NC(C)=C2C(=O)OC)cc1 (stereo unspecified) | inactive: -8.94%
CCc1ccc(C(=O)c2cn(CC(=O)Nc3cc(OC)ccc3OC)c3ccc(C)cc3c2=O)cc1 | inactive: 19.6%
